# Some of the results follow.
# System: PfSIP2 AP2 domain 1 (GST-tagged)
# Experiment: gcPBM binding intensity (ln(normalized median fluorescence intensity)); higher = stronger DNA binding
# Outline: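 Plasmodium falciparum DNA-binding domains carrying a GST tag were expressed in E. coli and applied for 1 h, at about 25 μg on average, to an Agilent 4 × 180k array. The array held primer-extended double-stranded 36-bp intergenic genomic probes together with negative controls, and binding took place in 1× PBS with 1% milk, 0.2 mg/ml BSA, 0.5% salmon testes DNA and 0.03% Triton X-100. An Alexa488 anti-GST antibody detected bound protein, and the array was scanned at 488 nm. Binding intensity is taken as the highest Masliner-normalised natural-log median intensity across replicate spots of either probe orientation.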
row,Sequence,gcPBM binding intensity (ln)
1,AAATGCGTATATAACGCATGTATAAGAACATTTTTT [TGCATGCA_site225],6.75
2,TTATAATCTATACATATATATGTATGTATGTCTCAA [CACACA_negctrl_site1702],6.9
3,GAAGTATTATTAAAGCTGCACTTTTCTAAAATAAAC [GTGCAC_site9429],8.63
4,ACATCATTTTTATGTACACACACATATACGTTGAAT [CACACA_site5095],7.43
5,TAAAATTTACAACACTGTACTTGAATTTATCTTTAA [XGTACX_site241],7
6,CATTAATTTAATAAATGTACATAAAATATATATTAT [XGTACX_site8085],7.22
7,GCAGTATGCGATCAGTGTACGAGTTATTTTATAAAA [XGTACX_site4764],6.69
8,GTTATACACATATATACACACATATGTAAATATATA [CACACA_site9080],7.19
9,CTAATATATGTATGCACACACAATATATACATATTT [CACACA_site3360],7.74
10,ATATTACAAATATAATGTACAAAATATAAATATGCA [XGTACX_site8106],6.85
11,GTCCTTACTAATTAATTTTAGGCCATATAGTTTGTC [XGTACX_negctrl_site199],7.23
12,TGCCATATATATATTAAATACATAATAATGAGCCTA [GTGCAC_negctrl_site10],6.96
13,AGTCATAAATTTATTTGTACATATAATATATATATA [XGTACX_site8489],8.66
14,ATAAACAAAAAAAAAAAATATATCAATATATATATA [CACACA_negctrl_site299],8.82
15,AAAATATATAATTTTTAACACACAAAAAAAAAAAAA [CACACA_site9192],6.95
16,ATGTTATATTTTTTTATACACACTGGGATATATAAA [CACACA_site6244],7.11
17,TTCATTGTGTTAACGGTGCATATATTTTTTCACCGT [GTGCAC_site9464],10.3
18,ATATTAAAAAAATATGCATGCAAATATTATTTTGTA [TGCATGCA_site191],6.85
19,TAAAAATATAAAAAGTGTACAATATATAAATTAATA [XGTACX_site1606],6.88
20,AATCAAATTTTCAAGTCGCACCAAACAAAAAAATGA [CACACA_negctrl_site1397],9.09
21,TTTTTCTTTTTTTTTTTAATAATATATAACAAATTT [CACACA_negctrl_site1724],6.81
22,TATTTAATTAATATAATATTAAACGGAAAAGATAAA [TGCATGCA_negctrl_site148],7.22

row,Sequence,gcPBM binding intensity (ln)
1,AATGTGTAGGTAAGATAATTTTTGTTTTTTTATTTG [CACACA_negctrl_site424],6.69
2,ATATTTATAATATAGAGTACTTACTAAGTTATGGGT [XGTACX_site5405],7.21
3,TTAAACTTGAAACACACACACACACCCATATAAAAA [CACACA_site758],6.99
4,AAATTTTCTTAAGGTTGTACTTTTTGAAAATAATCT [XGTACX_site4894],6.94
5,TTTTTATATATATGTATAAATATTTTTTCTATTTAT [XGTACX_negctrl_site606],6.66
6,TGTAGTCTGGAGAAACGTACATAGTATCTGGTAGCT [XGTACX_site2538],6.84
7,GAATTTCAACAAAGTAGTACATTTTATAGTAATTGG [XGTACX_site2319],6.81
8,ATAAATATGTTCTGCACACAAATAAGTGTTTGAAGT [CACACA_site3892],7.27
9,TAATGGAATAAAAATTGTACATATTTTTTTTTTTTT [XGTACX_site7669],7.02
10,TTTTTTTCTCTCTCTACACACAAGGTTTAATTTAAA [CACACA_site1690],7.1
11,TATAATATATCTGTAACACACAAAAGTTATATACTT [CACACA_site5578],6.93
12,AACTCACGAGGACACACACACATATATATATATATA [CACACA_site4711],9.27
13,ACATACATACATACATACATACATACATACATACAT [XGTACX_negctrl_site315],8.34
14,TCATAGGGGTAGAAGGTGCAATAAAAAAGAAGAAAA,10.7
15,ATTGCGTGATAATAATGTACAAAAAGTAATTTATAT [XGTACX_site8339],6.95
16,TCATTCTAAATATAAACACACATAAATATATACATT [CACACA_site3354],6.93
17,AATATATAATTTTTAACACACAAAAAAAAAAAAAAT [CACACA_site3581],6.83
18,AAAAAAAAAAAAAAAACACACACATATAATATATTT [CACACA_site8369],7.66
19,GGTACGTATTTCAATGCATGTCCATGTACATATAAA [TGCATGCA_site208],7.25
20,CATACGTTCTAATATATACACACCTGGTATTAATTA [CACACA_site2221],7
21,CTATAATGTTTCTTTCAACACACAAAAAATGAACAC [CACACA_site8438],7.51
22,AAAAAAAAAAAAAAAAGTACAAAAATATATATGCAT [XGTACX_site8392],7.37

row,Sequence,gcPBM binding intensity (ln)
1,TATGCACAGAAACACACACACACAACCAAAAAATAA [CACACA_site5425],7.41
2,TTTTTATTTATATGTATACACACTTTAATTAAAAGT [CACACA_site2525],7.36
3,AATAAAAAAAAATGCACACATATATATATATATATA [CACACA_site2421],9.66
4,TGTTATATATAAATTTGTACACATAAATATTTTTAC [XGTACX_site5873],7.13
5,CAGAATATATTCTATACATGCAATAGGAAATGTAGC [TGCATGCA_site110],7.57
6,TTTCTTATTTTTTTCACACACTAAACATTTCAAATG [CACACA_site5259],7.35
7,TCAATAAGATTATAAAGTACTTTTGAAGATATTATA [XGTACX_site7489],6.92
8,AAATATTTAAATATTATGTATGATTATATATATATA [CACACA_negctrl_site590],8.78
9,AAATAAATAAATAAATGTACACATATATATATATAT [XGTACX_site7787],9.36
10,AAAGAGAACATAAGTACACACATGTTCTTTTAGTAA [CACACA_site2824],6.71
11,AAAAAAAAAAAAAAAACACACAAAAGCAAGAAAAAC [CACACA_site3198],7.65
12,AAAGTAAAAACACATACATGCATATACACATATAAC [TGCATGCA_site341],7.18
13,AATAGGAAAACCTATACACACTTTAAAAAAAATATA [CACACA_site4977],6.73
14,ATAAATATGTATTGCTGTACATATATATAAATTATC [XGTACX_site8411],7.13
15,TAAAAAATTTTCGCGTGTACGCAAGAAAAAAAAAAT [XGTACX_site3058],7.59
16,TTTTTGCCATATTACACACACACATGGAAACCCCCT [CACACA_site4994],8.03
17,TATATATTTAGTTAGTGTACAAGTTATTTAGTAGTT [XGTACX_site5133],7.17
18,TCTTTTAACAAATAATAAGCTAATTTATATTATTAT [GTGCAC_negctrl_site655],6.78
19,AAAAAAATAATGTATATATAAATTTATTTACATATG [GTGCAC_negctrl_site107],6.91
20,TAAAAAATAAGATATACACACATATATTTATTTATA [CACACA_site7158],6.72
21,CAAATAAATTAAAGGTGTACTTTTATAGTTACGACA [XGTACX_site3926],6.71
22,CATATTTTCTTGTGTACACATTTATTTTATACTATA [CACACA_site6032],7.49

row,Sequence,gcPBM binding intensity (ln)
1,CACCCACCCAGACACACACACACACCCCCACCCATA [CACACA_site367],7.6
2,AATTATTTATTGAGAGTGCAACAAATTATTTCAAAT [GTGCAC_site9461],8.54
3,ACATTTTAAATACGATGTACTTGAGTTTTTTTTAAA [XGTACX_site5833],6.95
4,TTTTTTTGCATGAGCAATAAAAAAGGCTTGTTCAAA [CACACA_negctrl_site1615],6.57
5,GAAATAAAAGATGGTTGTACACCGTTTTCTCATATA [XGTACX_site5368],6.92
6,TACATATATGATAAAAGTACATATAAATATACATAA [XGTACX_site3804],6.93
7,TATATGAATAAACATTGTACGTAAATATTAACTATC [XGTACX_site543],7.15
8,TTATATATTAAGAAATGTACGAAAAAAAAAATTATA [XGTACX_site3893],6.94
9,AAGATGATAAAATATGTACACACAGTTTATACATTT [CACACA_site9341],6.97
10,AAAAAAAATTATATATGTACTTATTAATCCTTTTAT [XGTACX_site1387],6.81
11,TATAATAATAATAATAATAATAATAATAATAATAAT [CACACA_negctrl_site905],7.54
12,CGCATAAAGACAAGAACACACATATAGATTGTAGTA [CACACA_site3693],6.75
13,CATAATAAGTATAACGTTAGTTACAAACAGCTTGTT [CACACA_negctrl_site937],6.74
14,AAAATAATGTATATAGTGCAAATGAAAACGAAAAAA [GTGCAC_site9455],8.32
15,TTTTTAAATAAATGTTTTTATTATATACATATCAAT [TGCATGCA_negctrl_site423],6.79
16,TTTGTTTTTTTGAGAGTGCAATATATATAAAAAGGG [GTGCAC_site9691],9.1
17,TTGGTGATATTTTTCTCACACATTTACCAGAGATGT [CACACA_site4684],6.85
18,GTAGATATTTATTGAGTGCATGTTATAAAGGGAAAA [GTGCAC_site9481],9.62
19,TTTTTATTTTTTTACAGTACATAAAATAAATAAATA [XGTACX_site6596],7.21
20,TTTTTTTTATGGAAACGTACATACATACATTAAAGA [XGTACX_site7401],7.46
21,TATTTATATATTTATGCATGTTATAGGCAAAAATGT [TGCATGCA_site397],7.13
